Drawing on PubChem BioAssay AID485344 (National Center for Advancing Translational Sciences (NCATS), 2010), this text covers inhibition for 98 compounds.

Structures are written as SMILES. The whole screen tested about 340,000 compounds, of which about 6,900 (2%) were called active. No stated cut-off is given here; in the data, active means inhibition above about 30%; inactive means below that, where a call was filed. This is a selection; strong and weak results do not stand in their true shares. The source gives no active or inactive call for entries shown without one.

Sequence of UniProt P14416 (P14416 whole entry, looked up): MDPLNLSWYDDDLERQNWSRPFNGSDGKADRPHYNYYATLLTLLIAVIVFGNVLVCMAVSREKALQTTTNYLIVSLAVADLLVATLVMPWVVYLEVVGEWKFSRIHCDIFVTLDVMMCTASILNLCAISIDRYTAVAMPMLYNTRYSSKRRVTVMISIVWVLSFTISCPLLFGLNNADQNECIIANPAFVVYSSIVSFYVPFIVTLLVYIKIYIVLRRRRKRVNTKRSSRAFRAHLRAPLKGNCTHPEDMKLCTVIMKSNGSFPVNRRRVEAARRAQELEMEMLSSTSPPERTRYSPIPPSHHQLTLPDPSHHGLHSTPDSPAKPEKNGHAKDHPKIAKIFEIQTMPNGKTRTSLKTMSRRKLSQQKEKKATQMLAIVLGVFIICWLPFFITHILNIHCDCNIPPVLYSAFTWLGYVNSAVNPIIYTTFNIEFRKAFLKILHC

The target of this assay is D(2) dopamine receptor (Homo sapiens) (UniProt P14416). Description: HTS Assay for Allosteric Antagonists of the Human D2 Dopamine Receptor: Primary Screen for Antagonists. Further: 0% is about no effect. Particulars: HEK293 TREx D2 cells, calcium flux, dopamine EC80; at 10 µM; stronger effect = higher value. The gist of the method:
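Tetracycline-induced HEK293 T-REx cells expressing D2 force-coupled to calcium signalling were dye-loaded, exposed to compound for 180 s, then challenged with an EC80 of dopamine; calcium flux was followed kinetically for a further 180 s.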
In the case of `Cc1ccc2c(=O)cc(C(=O)Nc3sc4c(c3C(=O)NCc3ccco3)CCC4)oc2c1`, the inhibition was found to be 0.404%.
With `CC1=C(C(=O)OCc2ccc(C)cc2)C(c2ccccc2F)CC(=O)N1` (stereo not drawn) the figure was 13.8%; with `O=C(c1ccc(CN2CCc3ccccc3C2)cc1)N1CCCCC1`, active: 34.9%; with `CCc1ccc(CNC(=O)c2c3c(nc4ccccc24)C(=O)N(C2CCCCC2)C3)cc1`, 17%.
With `Cc1ccccc1OCCCCn1c(-c2ccc(Cl)cc2)nc2ccccc2c1=O` the figure was 5.46%; with `CCOC(=O)c1c(C)[nH]c(C)c1S(=O)(=O)N(C)CC(=O)Nc1cc(Cl)ccc1C`, -2.13%.
With `Clc1ccc(OCCN2CCCCC2)cc1Cl` the figure was active: 103%; with `CCOC(=O)c1ccc(N2C(=O)c3[nH]nc(-c4ccc(C)cc4)c3C2c2ccc(O)c(OCC)c2)cc1` (stereo not drawn), 4.19%.
For the compound `COc1cc2c(=O)c(C(=O)c3ccc(C)c(C)c3)cn(Cc3ccccc3F)c2cc1OC`, the inhibition worked out at 3.3%.
With `COc1ccc(F)cc1C(=O)C1CCCN(Cc2cccn2-c2cccnc2)C1` (stereo not drawn) the figure was active: 74%; with `COCCNC(=O)c1ccc2c(=O)n(CCc3ccccc3)c(SCC(=O)CC(=O)OC)nc2c1`, -12%.
As for `CC(=O)N1c2ccc(S(=O)(=O)N3CCC(C(=O)Nc4cc(C)cc(C)c4)CC3)cc2CC1C` (stereo not drawn), the inhibition is active: 70.6%.
Consider `COc1cccc(-c2nc(S(=O)(=O)c3ccccc3)c(N3CCCCC3)o2)c1`, for which the inhibition was -7.39%.
To `CCC(C)NC(=O)CSc1nc2cc3c(cc2c(=O)n1CCCC(=O)NCCc1ccc(OC)c(OC)c1)OCO3` (stereo not drawn) belongs 0.915%; to `Cc1cccc(OCCSc2nc3ccccc3n2CC(=O)N2CCOCC2)c1`, 5.24%.
With `COc1ccccc1CNC(=O)c1ccc(CS(=O)(=O)c2c(Cl)cccc2Cl)o1` the figure was 2.47%; with `COc1ccc(-n2nc([N+](=O)[O-])c(=NC3CCN(Cc4ccccc4)CC3)n2O)cc1`, active: 71.2%.
For the compound `Cc1ccc(NC(=O)CCOc2ccccc2)cc1`, the inhibition is -23%.
With `COc1ccc(NC(=O)c2cccc(N3CCCS3(=O)=O)c2)cc1OC` the figure was 10.7%; with `COc1ccccc1N1CCN(C(=O)Cn2c(=O)n3nc(-c4ccc(C)cc4)nc3c3ccccc32)CC1`, -0.498%; with `CC(C)Cc1ccc(S(=O)(=O)N2CCC(c3ccncc3)CC2)cc1`, -5.1%.
With `O=C(Nc1ccccc1)/C(=C/c1ccccc1)NC(=O)c1ccco1` the figure was active: 30.1%.
In the case of `Cc1nc(N2CCCC2)ncc1C(=O)NCc1cccc(Cl)c1`, the inhibition came to 3.97%.
In the case of `COC(=O)c1ccc(NC(=O)CCS(=O)(=O)c2ccc(Br)s2)cc1`, the inhibition worked out at 16.1%.
For `COC(=O)c1ccc(NC(=O)CC2C(=O)N(c3cccc(OC)c3)C(=O)N2Cc2ccco2)cc1` (stereo not drawn), the inhibition was found to be 3.9%.
With `CCc1ccc(NC(=O)CSc2nc3ccccc3nc2Cc2ccc(C)cc2)cc1` the figure was -4.57%; with `Cc1nnc(N2C(=O)c3oc4ccccc4c(=O)c3C2c2ccc(C(C)(C)C)cc2)s1` (stereo not drawn), 1.53%; with `COc1ccc(C)cc1NC(=O)CN1c2ccccc2S(=O)(=O)c2ccccc21`, 9.82%.
To `COc1ccc(C(=O)CSc2nc(C)cc(C)c2C(=O)Nc2ccccc2C)cc1` belongs 0.557%; to `COc1ccc(Cl)cc1-n1nnc(-c2nc(-c3ccccc3)no2)c1C`, -0.278%; to `COc1ccc(-c2nc3cc(C(C)C)ccc3o2)cc1NC(=O)c1ccccc1[N+](=O)[O-]`, 6.11%.
With `Cn1c(SCC(=O)Nc2ccccc2)nnc1-c1ccccc1`, the inhibition was -8.33%.
With `Cc1ccc(CNc2nc(-c3ccco3)nn2S(C)(=O)=O)cc1` the figure was 23.4%.
As to `CC1=Nc2ccc(Br)cc2C(c2ccccc2)N1CC(=O)NN` (stereo not drawn), the inhibition is active: 36.1%.
With `COc1ccc2c(c1)c(=O)c(C(=O)c1ccc(C)c(C)c1)cn2CC(=O)Nc1ccc2c(c1)OCCO2` the figure was 12.7%; with `CCOc1ccccc1CNC(=O)CCn1c(=O)c2cccn2c2ccc(F)cc21`, -6.04%; with `Cc1ccc(Cn2c(CN3CCC(C(=O)NCc4ccccc4C)CC3)cc3ccccc32)cc1`, -23.1%.
To `COc1ccc(NC(=O)C2COc3ccccc3C2)cc1Cl` (stereo not drawn) belongs -9.68%.
With `O=C(NCc1ccc(Cl)cc1)c1ccc2c(Cl)c3c(nc2c1)CCCC3` the figure was 14.6%; with `Cc1ccc(C)c(N2CCN(C(=O)CCC(=O)Nc3ccc4nc(N5CCCCC5)cc(C)c4c3)CC2)c1`, 2.28%.
Regarding `Clc1ccccc1OCCN1CCC(Cc2ccccc2)CC1`, the inhibition is active: 63.3%.
To `Cc1ccc(OCCSc2nnc(-c3cccs3)o2)cc1Cl` belongs 10.5%.
To `CCOC(=O)c1cccc(NC(=O)CCCn2nc(C)c3c(C)n(-c4ccccc4)nc3c2=O)c1` belongs -5.57%; to `CCOC(=O)c1c(C)n(-c2ccccc2)c2ccc(OC(=O)c3ccccc3NC(=O)C(C)C)cc12`, 5.67%.
With `CC(=O)Nc1ccc(NC(=O)C2CCN(c3c(NC(C)=O)c(C)nn3-c3ccccc3)CC2)cc1` the figure was 5.45%.
In the case of `COc1ccc(Cl)cc1NC(=O)Cn1ncc2c3ccccc3n(C)c2c1=O`, the inhibition is -1.11%.
With `Cc1nn(CC(=O)NCc2ccc(F)cc2)c2ccccc12` the figure was 13.2%; with `Cc1ccc2[nH]c3c(=O)n(CC(=O)NCc4ccco4)ncc3c2c1`, -0.989%; with `Cc1cc(N2CCN(c3cccc(C)c3C)CC2)n2cnnc2n1`, -3.05%.
With `CCOC(=O)c1cnn(-c2ccc(C(=O)Nc3ccc(OC(F)(F)F)cc3)cc2)c1N` the figure was 9.3%; with `CC(=O)Nc1ccc(NC(=O)C2CCCN(S(=O)(=O)c3ccc4c(c3)CCCC(=O)N4)C2)cc1` (stereo not drawn), -1.14%.
To `S=C(Nc1ccccc1Cl)NC1CCN(Cc2ccccc2)CC1` belongs active: 84.6%; to `COc1ccc(Br)cc1C(=O)Nc1cccc2ccc(C)nc12`, 5.87%; to `COc1cc(-c2nc(S(=O)(=O)c3ccc(Br)cc3)c(N3CCOCC3)o2)cc(OC)c1OC`, -12.4%.
Take `CCCCCCCC/C=C\CCCCCCCC(=O)NCCc1ccc(O)c(O)c1`: the inhibition was active: 56.6%.
To `O=C(c1cccs1)N1CCN(Cc2ccccc2)CC1` belongs active: 63.9%; to `O=C(c1ccccc1)c1ccc(OCC(O)CN2CCCC2)cc1` (stereo not drawn), active: 71.8%; to `CCc1nc2nc(C)cc(Nc3cc(Cl)ccc3C)n2n1`, 12.1%.
To `CCc1ccc(CNC(=O)c2ccc3c(Cl)c4c(nc3c2)CCCC4)cc1` belongs -2.61%.
To `Cc1ccc(N(CC(=O)NCCc2ccccc2C)S(=O)(=O)N(C)C)cc1` belongs 7.89%; to `COc1ccccc1CNC(=O)c1cccc(N2CCCS2(=O)=O)c1`, -0.38%.
`CCOC(=O)c1ccc(NC(=O)C2CC(=O)NC(=Nc3ccc(C)c(C)c3)S2)cc1` (stereo not drawn): the inhibition amounted to 7.55%.
With `COc1ccccc1CNC(=O)Cn1c(=O)oc2cc(S(=O)(=O)N3CCCC3)ccc21` the figure was -3.32%; with `Cc1cccc(NC(=O)Nc2ccc(F)cc2)n1`, -12.4%; with `Cc1cccc2c1-c1sc(C(=O)N3CCN(c4ccccc4)CC3)cc1CO2`, -4.45%.
With `COc1ccc(-c2noc(N3CCC(C(=O)N4CCN(c5ccccc5OC)CC4)CC3)n2)cc1` the figure was -15.6%; with `Cc1ccc2nc(NCc3ccccc3)c3nnnn3c2c1`, 11.9%; with `CCCCNS(=O)(=O)c1ccc2nc(-c3cccnc3)cc(C(=O)NCCCOC(C)C)c2c1`, -22.6%.
Turning to `CCOc1cccc(Nc2nn(-c3ccc(OC(F)(F)F)cc3)nc2C(C)=O)c1`, the inhibition came out at 6.18%.
To `COc1ccc(Nc2nc(-c3cccc(Cl)c3)c3c(n2)-c2ccccc2OC3)cc1` belongs 9.48%; to `CCOc1ccccc1CNC(=O)Cc1ccc(NC(=O)N2CCCCc3ccccc32)cc1`, 8.88%.
Consider `CCOc1ccc(NC(=O)CSc2nc3ccsc3c(=O)n2C(C)CC)cc1` (stereo not drawn), for which the inhibition was -15.1%.
With `O=C(Nc1cccnc1)c1ccc2snnc2c1`, the inhibition was active: 35.4%.
To `CCOc1ccc(CCNC(=O)CCc2c(C)nc3c(c(C)nn3-c3ccc(C)c(C)c3)c2C)cc1` belongs 10.6%; to `COC(=O)c1cc2oc3ccccc3c2n1Cc1nc(-c2ccccc2Cl)oc1C`, -7.5%.
With `CC(C)Sc1nc2sc3c(c2c(=O)n1Cc1ccccc1)CCCC3` the figure was -0.504%; with `Cc1ccc(NC(=O)C2CCN(S(=O)(=O)c3c(C)noc3C)CC2)cc1`, 8.42%.
To `CC1(C)CC(=O)c2cc(-c3nc(-c4ccccc4)cs3)c(=O)[nH]c2C1` belongs -16.1%; to `Cc1nnc(C)n1-c1ccc(C(=O)Nc2cccc(Br)c2)cc1`, -2.46%.
As for `COCCCNC(=O)NC(CCC(C)C)c1c(-n2cccc2)sc2c1CCN(C)C2` (stereo not drawn), the inhibition amounted to 16.2%.
Consider `Cc1c(Cl)cccc1NC(=O)CCCn1nc(C)c2sc3ccccc3c2c1=O`, for which the inhibition is -1.62%.
Consider `CCC1CCCCN1S(=O)(=O)c1ccc(NC(=O)c2cc(=O)c3c(C)cc(C)cc3o2)cc1` (stereo not drawn), for which the inhibition was found to be 4.32%.
`COc1cccc(N2CCN(c3c4c(nc5nncn35)CCC4)CC2)c1`: the inhibition was determined as 11.6%.
Consider `Cc1cccc(Cn2cc3c(=O)n(CC(=O)Nc4c(C)cccc4C)nc-3c3cc(F)ccc32)c1`, for which the inhibition is -3.45%.
With `Cc1nn(-c2ccc(N3CCCCC3)nn2)c(C)c1CCC(=O)NCc1ccc(F)cc1` the figure was 7.88%; with `CCc1ccccc1NC(=O)CN1C(=O)CCn2nc(-c3cccn3C)cc21`, -15.1%.
In the case of `Cc1ccc(-c2c(CN3CCN(c4cc(C)ccc4C)CC3)csc2C)cc1`, the inhibition amounted to 2.83%.
To `CCN(CC)C(=O)CSc1nnc2ccc3ccccc3n12` belongs -20.5%.
With `CCCn1cc(S(=O)(=O)c2cccc(Cl)c2)c(=O)c2cc(F)c(N3CCOCC3)cc21` the figure was 5.18%.
To `O=S(=O)(Nc1ccc(-c2ccc(N3CCCCC3)nn2)cc1)c1ccc(OC(F)(F)F)cc1` belongs -7.48%; to `C/C(=N\NC(=O)c1ccccc1F)c1ccc(C#N)cc1`, active: 36.4%; to `COc1ccc(CNC(=O)c2cc3c(-c4ccc(Cl)cc4)nn(C)c3s2)cc1`, -2.75%.
As to `COCCN1C(=O)c2oc3cc(C)cc(C)c3c(=O)c2C1c1cccc(O)c1` (stereo not drawn), the inhibition stood at 1.52%.
To `COc1ccc(S(=O)(=O)N(CCc2ccccc2)CC(=O)NCc2ccccc2)cc1` belongs 4.64%; to `Cn1c(=O)n(C)c2cc(NS(=O)(=O)c3ccc(F)cc3)c(NCc3ccccc3)cc21`, -6.06%.
With `CCOC(=O)c1cccc(NC(=O)Cn2nc3c(cc2=O)CCCC3)c1` the figure was 15.9%; with `Cc1ccc(N2CC(C(=O)NCCS(=O)(=O)N3CCN(c4ccccc4)CC3)CC2=O)cc1` (stereo not drawn), 11.4%.
`FC(F)(F)c1cccc(-n2cc(-c3ccccc3)c3c(N4CCCCC4)ncnc32)c1`: the inhibition was 19.1%.
